# Laboratory results taken from publication PMC4336329 (PLoS ONE, 2015).
# About 2,200 (0.71%) of roughly 310,000 compounds showed an effect of 50% or more. Effects have a minus sign here. This is one part of the list.
# Biological target: human ether-à-go-go-related gene (hERG) potassium channel (human, UniProt Q12809)
# Assay: primary screen, population patch clamp on CHO cells stably expressing hERG
# human ether-à-go-go-related gene (hERG) potassium channel, sequence (Q12809 whole entry, looked up): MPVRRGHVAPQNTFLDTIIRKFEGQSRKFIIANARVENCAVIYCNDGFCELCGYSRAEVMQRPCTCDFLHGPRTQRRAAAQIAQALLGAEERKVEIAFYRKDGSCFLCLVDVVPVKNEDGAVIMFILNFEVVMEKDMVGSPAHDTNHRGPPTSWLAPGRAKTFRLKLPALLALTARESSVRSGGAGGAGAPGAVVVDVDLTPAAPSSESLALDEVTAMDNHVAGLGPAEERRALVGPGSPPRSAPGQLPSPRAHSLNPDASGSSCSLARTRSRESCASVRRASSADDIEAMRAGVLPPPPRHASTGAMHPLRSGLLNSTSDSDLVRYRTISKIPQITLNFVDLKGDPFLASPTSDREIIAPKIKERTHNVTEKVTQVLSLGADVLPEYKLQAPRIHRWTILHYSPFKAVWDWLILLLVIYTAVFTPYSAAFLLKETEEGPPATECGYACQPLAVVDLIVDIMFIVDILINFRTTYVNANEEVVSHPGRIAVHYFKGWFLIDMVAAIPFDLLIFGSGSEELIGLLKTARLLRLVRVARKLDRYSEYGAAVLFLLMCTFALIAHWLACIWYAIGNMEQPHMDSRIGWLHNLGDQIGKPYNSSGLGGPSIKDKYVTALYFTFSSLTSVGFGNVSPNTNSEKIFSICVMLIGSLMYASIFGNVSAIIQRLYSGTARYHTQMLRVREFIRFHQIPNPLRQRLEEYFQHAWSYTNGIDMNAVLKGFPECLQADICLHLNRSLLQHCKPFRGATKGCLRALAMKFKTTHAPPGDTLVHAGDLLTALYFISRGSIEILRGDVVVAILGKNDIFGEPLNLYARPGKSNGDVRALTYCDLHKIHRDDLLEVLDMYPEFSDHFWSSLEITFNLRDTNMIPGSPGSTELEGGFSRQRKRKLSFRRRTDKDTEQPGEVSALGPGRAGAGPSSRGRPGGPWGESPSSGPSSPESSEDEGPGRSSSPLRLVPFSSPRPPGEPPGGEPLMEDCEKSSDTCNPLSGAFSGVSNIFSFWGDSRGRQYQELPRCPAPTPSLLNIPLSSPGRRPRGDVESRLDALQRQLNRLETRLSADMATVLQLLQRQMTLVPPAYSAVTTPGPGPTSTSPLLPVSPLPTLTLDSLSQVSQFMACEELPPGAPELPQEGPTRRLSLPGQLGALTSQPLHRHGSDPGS
row,SMILES,"hERG current change (%, negative = inhibition) at 1uM [%]"
1,C#CCOCCOCCOCCNc1nc(N2CCN(C(=O)[C@H]([C@@H](C)CC)n3cc([C@@H](N)CC(C)C)nn3)CC2)nc(N2CCN(C(=O)[C@H]([C@@H](C)CC)n3cc([C@@H](N)CC(C)C)nn3)CC2)n1.Cl,3.85
2,CN(CCOc1ccc(Cl)cc1)C(=O)CN1C(=O)NC2(CCCCC2)C1=O,-2.65
3,COc1ccc2ccccc2c1/C=N/n1cnnc1,9.2
4,Cc1ccc2[nH]c(=O)c3cc(C(=O)N(C)Cc4ccco4)sc3c2c1,12.3
5,Clc1ccc(CCNc2nc3ccccc3s2)cc1,3.14
6,CS(=O)(=O)c1ccc(-n2nnc3ccccc32)c([N+](=O)[O-])c1,10.8
7,COc1cccc(CSc2nc3cc4c(cc3cc2C)OCCO4)c1,17.1
8,Cn1cc([N+](=O)[O-])c(C(=O)NCc2cc3cc(Cl)ccc3[nH]2)n1,6.09
9,COc1ccc(N2CCN(C(=O)COC(=O)COc3cccc(C(F)(F)F)c3)CC2)cc1,7.75
10,COCCOC(=O)C1=C(C)NC2=C(C(=O)CC(C)(C)C2)C1c1cccnc1 (stereo not drawn),17.6
11,COc1cccc(C(=O)N/N=c2/oc3ccccc3cc2C(N)=O)c1,5.68
12,C/C(=N\NC(=O)Cn1ccc(C(F)(F)F)n1)c1ccc2c(c1)OCO2,6.5
13,Cc1cnc(CN2CCCC(C(=O)c3ccc4c5c(cccc35)CC4)C2)[nH]1 (stereo not drawn),3.77
14,Cc1ccc(NC(=O)NNC(=O)C2CC(c3cccnc3)=NO2)cc1 (stereo not drawn),8.91
15,COCC(C)N1CCC(n2nccc2NC(=O)c2ccc3c(c2)OCO3)CC1 (stereo not drawn),16.6
16,O=C(CSc1nnc(Cc2ccccc2)o1)c1ccc(F)cc1,8.66
17,Cc1nc2ccccc2c(=O)n1-c1ccc(Br)cn1,3.3
18,O=C(CSc1ccc(Cl)cc1)N1CCN(c2c(Cl)cccc2[N+](=O)[O-])CC1,0.29
19,C/C(CC(=O)Nc1cccc(Br)c1)=N\NC(=O)c1ccc(O)cc1O,12.1
20,Clc1ccc(CSc2nnc(-c3ccncc3)o2)cc1,4.32
21,COc1ccc(OC)c(S(=O)(=O)Nc2cc(C(=O)O)ccc2N2CC3CC(C2)c2cccc(=O)n2C3)c1 (stereo not drawn),10.1
22,Cc1nnc(SCC(=O)O)o1,13.8
23,COC(=O)c1ccc(NC(=O)CSc2nnc(-c3ccccc3Br)n2-c2ccccc2)cc1,6.23

row,SMILES,"hERG current change (%, negative = inhibition) at 1uM [%]"
1,Clc1cccc(-c2sc(Nc3ccccc3)n[n+]2-c2ccccc2)c1Cl.[Cl-],17.6
2,O=[N+]([O-])c1ccccc1S(=O)(=O)NCc1ccco1,7.99
3,CC1=CC(=C2C(=O)NC(=S)NC2=O)C=C(C(F)(F)F)N1C,12.6
4,COc1cc(CC(=O)N(c2ccccc2)c2nc(C)cs2)cc(OC)c1OC,-2.86
5,O=C(Nc1ccccc1C(=O)NCCN1CCOCC1)c1ccc(Cl)cc1Cl,8.86
6,C/C(=N\N1CCCCCC1)c1c(O)n(-c2ccc(Cl)cc2)c(=O)[nH]c1=O,11
7,O=C(NCc1csc(-c2cccs2)n1)Nc1ccc(F)cc1F,12.4
8,CN(CC(=O)N1CCCCCC1)S(=O)(=O)c1ccc(Br)cc1,0.738
9,CC(C)(C)OC(=O)N[C@@H](C(=O)OC(C)(C)C)c1ccccc1,9.82
10,CCC1Oc2ccccc2N(CC(=O)NCCCN2CCN(Cc3ccccc3)CC2)C1=O (stereo not drawn),-21.6
11,NC(=O)c1ccc(NC(=O)COC(=O)c2cc(S(=O)(=O)N3CCOCC3)ccc2N2CCCCC2)cc1,10.7
12,CCN(CC)CCn1c2ccccc2c2nc3ccccc3nc21,12.8
13,CC1=CN2C(=N)/C(=C/c3ccc(C)o3)C(=O)N=C2S1,7.53
14,CCOC(=O)c1c(NC(=O)C(F)(OC)C(F)(F)F)sc2c1CCN(C)C2 (stereo not drawn),6.95
15,O=C(CCc1ccccc1)NC(=S)Nc1ccc(S(=O)(=O)N2CCOCC2)cc1,12
16,O=C(CCC(=O)N1CCN(c2ccc(F)cc2)CC1)c1ccccc1,15.4
17,CN1CCN(c2ccc(N)c(N3CCN(C)CC3)c2)CC1,16.1
18,COC(=O)C(C(=O)OC)c1ccc(-n2cccc2)cc1,14.9
19,COc1ccc(C2=NS(=O)(=O)N(C)C(C(=O)NC3CCCC3)=C2)cc1,9.89
20,CC(C)c1nc2ccc(NC(=O)C34CC5CC(CC(C5)C3)C4)cc2[nH]1,11.3
21,COc1ccc(CNC(C)Cc2cccs2)cc1 (stereo not drawn),-0.498
22,O=C(Nc1ccccc1)c1cccnc1NCCc1ccccc1,-1.34
23,CNc1nc(C)c([N+](=O)[O-])c(Nc2ccc(OC)cc2)n1,13.3

row,SMILES,"hERG current change (%, negative = inhibition) at 1uM [%]"
1,O=C(NCc1ccc(N2CCCC2=O)cc1)c1cn(Cc2ccccc2)nn1,7.7
2,COc1ccc(-c2ncccc2OC(=O)C23CC4CC(CC(C4)C2)C3)cc1.Cl.O,8.65
3,Cc1cc(C)n(-c2ccc(C(=O)Nc3cccc([N+](=O)[O-])c3)cc2)n1,29
4,CS(=O)(=O)Nc1ccc(C(=O)N2CC(=O)Nc3ccccc32)cc1,12
5,CC(NS(=O)(=O)c1ccc(Br)cc1)C(c1cccs1)N1CCN(C)CC1 (stereo not drawn),-23.9
6,N/C(=N\OC(=O)CCc1ccccc1)c1ccc(Cl)cc1,12.3
7,Cc1ccc(NCc2nc3ccccc3n2CCOc2ccccc2)cc1,11.2
8,CC(=O)Nc1ccc(S(=O)(=O)NC2(C(F)(F)F)NC(=O)N(C3CCCC3)C2=O)cc1 (stereo not drawn),14.2
9,C[n+]1ccc(C(=O)N/N=C/c2ccco2)cc1.[I-],19.8
10,NC(=O)c1sc2nc(N3CCOCC3)c3c(c2c1N)CCCC3,9.39
11,O=C(NCc1ccco1)C1CCN(S(=O)(=O)c2cccc([N+](=O)[O-])c2)CC1,9.71
12,c1ccc2cc(Cn3ccnc3)ccc2c1,9.53
13,Cc1ccc(NC(=O)CS(=O)CC(=O)Nc2cnc3ccccc3c2)cc1Cl (stereo not drawn),15.9
14,CN(C)S(=O)(=O)c1ccc2nc(NC(=O)c3cccnc3)sc2c1,6.65
15,Cc1cccc(OCCn2c(CCCO)nc3ccccc32)c1,10.2
16,COCCNC(=O)CSc1ncnc2sc(-c3ccccc3)cc12,12.9
17,CC(C)c1ccc(OCCCCCN2CCOCC2)cc1.O=C(O)C(=O)O,10.2
18,O=C1CCNc2cc3ccccc3cc21,1.01
19,O=C(CCCN1C(=O)/C(=C/c2ccco2)SC1=S)Nc1ccccc1,7.34
20,CC(C)(C)S(=O)(=O)c1ccccc1C(=O)O,2.85
21,Cc1cccc(-n2ncc3c2CCCC3NC(=O)Cc2c(C)noc2C)c1C (stereo not drawn),20.1
22,Cc1[nH]n(-c2ccccc2)c(=O)c1C1(C(F)(F)F)C(=O)N(c2ccccc2)C2=C1C(=O)CC(C)(C)C2 (stereo not drawn),17.2
23,Cc1c(-c2csc(N)n2)c2ccccc2n1C,12

row,SMILES,"hERG current change (%, negative = inhibition) at 1uM [%]"
1,O=C1OC(/C=C/c2ccccc2)=NC/1=C/c1ccco1,-5.83
2,C=CCSc1nc(C)c2cc(C)cc(C)c2n1,13.2
3,CC(C)CNC(=O)COC(=O)CCC(=O)c1ccc(Cl)cc1,-10.5
4,O=C1Nc2ccccc2/C1=C\C(=O)c1ccccc1,13.7
5,Cc1cnc(CNC(=O)c2ccc(OC3CCN(C(=O)C4CC4)CC3)cc2)cn1,19.4
6,CCn1c2c(c(C)cc1=O)C(=O)CC(C)(C)C2,19.1
7,Cc1nc2ncnn2c(C)c1CCC(=O)NCc1ccco1,6.37
8,CCCCC1CCC(C(=O)N2CCOCC2)CC1 (stereo not drawn),7.45
9,Clc1ccc(-c2nc(-c3ccncc3)no2)c(Cl)c1,11.9
10,CC1(C(=O)O)CCC(C(=O)NC2CCCCC2)C1(C)C (stereo not drawn),10.5
11,CC1(C)Cc2c(C#N)c(NCCO)nc(-c3ccco3)c2CO1,9.42
12,O=C(Nc1ccc(Cl)c(S(=O)(=O)Nc2ccccc2Cl)c1)c1cccs1,2.21
13,COc1ccc(C(=O)NNC(=O)CSc2nnc(C(C)C)n2C)cc1,11.1
14,CCOc1ccc(N/C=C/C(=O)c2ccccc2)cc1,12.6
15,COc1cc(C2N(c3ccc(F)cc3)C(=O)C3CCCN32)cc(OC)c1OC (stereo not drawn),1.81
16,COCC1CCCCN1C(=O)c1ccc2oc(CCc3ccccc3)nc2c1 (stereo not drawn),6.42
17,C=CCN=C1NN=C(c2ccc3c(c2)OCCO3)CS1,15
18,CC1=C(C(=O)Nc2ccccc2)SCCO1,9.63
19,Cc1cc2cc(C)c3nnc(SCC(=O)NCc4ccc5c(c4)OCO5)n3c2cc1C,5.45
20,Cc1c(C(=O)COC(C)(C)C)[nH]c2ccccc12,15.2
21,O=C(Nc1ccncc1)c1ccc2ncsc2c1,5.27
